Data published in PMC6919601, “Identification of Plasmodium dipeptidyl aminopeptidase allosteric inhibitors by high throughput screening” (PLoS ONE, 2019).
Out of some 110,000 compounds screened, about 230 (0.21%) showed an effect of 50% or more. The list shows a part of the results.

Each compound was assayed against DPAP1 (Plasmodium falciparum, UniProt Q8IIJ9) (assay: primary screen, percent inhibition; read by cleavage of a fluorogenic dipeptide substrate; higher = more effect of the substance).
Parameters: species or system P. falciparum D10 trophozoite lysates; single well
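Also: 30 min substrate incubation versus DMSO and 10 µM JCP410 controls.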

DPAP1, sequence (Q8IIJ9 whole entry, looked up): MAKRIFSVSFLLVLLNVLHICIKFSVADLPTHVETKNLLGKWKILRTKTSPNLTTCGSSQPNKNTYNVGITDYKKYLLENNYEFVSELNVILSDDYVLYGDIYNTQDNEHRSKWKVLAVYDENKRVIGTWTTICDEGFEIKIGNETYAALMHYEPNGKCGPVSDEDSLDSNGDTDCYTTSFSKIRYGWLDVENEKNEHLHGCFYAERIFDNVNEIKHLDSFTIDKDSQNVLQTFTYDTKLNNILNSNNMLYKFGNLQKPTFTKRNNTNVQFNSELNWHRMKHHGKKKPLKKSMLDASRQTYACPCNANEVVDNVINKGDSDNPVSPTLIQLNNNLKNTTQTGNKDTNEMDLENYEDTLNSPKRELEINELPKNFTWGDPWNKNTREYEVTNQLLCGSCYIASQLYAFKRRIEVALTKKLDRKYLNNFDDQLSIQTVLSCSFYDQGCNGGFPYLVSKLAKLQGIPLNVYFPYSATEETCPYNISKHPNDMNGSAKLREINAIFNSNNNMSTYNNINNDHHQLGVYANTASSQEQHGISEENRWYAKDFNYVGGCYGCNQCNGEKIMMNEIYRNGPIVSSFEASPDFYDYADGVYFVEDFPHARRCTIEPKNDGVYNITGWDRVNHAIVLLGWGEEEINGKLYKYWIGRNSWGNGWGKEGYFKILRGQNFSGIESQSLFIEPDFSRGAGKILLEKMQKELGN

Structure (SMILES) | % Inhibition @ 10 uM [%]
CC1CN(Cc2c(F)cccc2F)CC(C)O1 (centres unmarked) | -1.75
COc1ccc(NCN2C(=O)c3ccc(C)cc3C2=O)cc1 | 1.92
COc1cccc(CN2CCN(C(=O)CC(C)C)CC2)c1OC | -3.71
COc1cccc(CNC(=O)CCc2ccc(-n3cnc4cccnc43)cc2)c1OC | -0.965
CC/N=C1/SC(C(=O)Nc2ccc(Cl)cc2)CC(=O)N1CC (centres unmarked) | 0.121
Cc1cc2nc(C)c(-c3ccccc3)c(N)n2n1 | -3.09
Cc1ccnc(N2CCCC(C(=O)NCCCc3ccccc3)C2)n1 (centres unmarked) | 3.84
CS(=O)(=O)c1ncc(Cl)c(C(=O)Nc2nnc(SC/C=C/c3ccccc3)s2)n1 | 0.569
Cc1ccc(S(=O)(=O)NCC(C)(C)CNS(=O)(=O)c2ccc(C)cc2)cc1 | -4.63
CCNC(=O)c1ccccc1NC(=O)c1ccc(OC)cc1 | 0.512
Cc1ccc(CSc2nnc(N3C(N)=C(C#N)C(c4cccnc4)C4=C3CCCC4=O)s2)cc1 (centres unmarked) | -1.05
Cc1ccc(-c2cc(-c3cc(Cl)ccc3O)[nH]n2)cc1 | 3.18
CNC(=O)c1cccnc1NC(=O)c1ccccc1 | -7.17
Cc1ccc(CNC(=O)CCN2N=C(c3ccccc3)CCC2=O)cc1 | -0.0542
COc1ccc(S(=O)(=O)Nc2nccs2)cc1 | -6.12
CCOc1ccc(CCN2C(=O)c3ccncc3C2=O)cc1OCC | 7.25
COc1ccccc1N1CCN(S(=O)(=O)c2ccc(F)cc2)CC1 | 3.47
CCCCOc1cc(C2C(C#N)=C(N)OC3=C2C(=O)CC(C)(C)C3)ccc1OC (centres unmarked) | -0.988
C=CCOC(=O)c1sc(N2C(=O)c3oc4ccccc4c(=O)c3C2c2ccc(CC)cc2)nc1C (centres unmarked) | -2
O=C(Nc1c(C(=O)Nc2cccnc2)cnn1-c1ccccc1)c1ccccc1 | -3
COc1cccc(OCc2nc3ccccc3n2CCC(C)C)c1 | -2.92
Cc1c(Br)c(C(F)(F)F)nn1CC(=O)N1CCCCCC1 | -2.5
O=C(Nc1cccc2ccccc12)c1ccc2c(c1)OCO2 | 5.07
CCOC(=O)C1=CN(Cc2ccc(OC)c(OC)c2)C=C(C(=O)OCC)C1c1ccc(O)cc1 | 0.219
CC(CNC(=O)c1nnc(Cc2ccc3c(c2)OCO3)o1)c1ccccc1 (centres unmarked) | -0.602
CCn1c(C)c(CCC(=O)O)c(=O)n2nc(-c3ccccc3OC)cc12 | 2.39

Structure (SMILES) | % Inhibition @ 10 uM [%]
COc1ccc(N2C(=O)CC(Cc3cccc(C)c3)C2=O)cc1 (centres unmarked) | -0.822
COc1ccc(C(=O)c2oc3ccccc3c2NC(=O)c2ccc(Br)o2)cc1OC | 2.76
O=C1NC(=O)N(Cc2ccccc2)C(=O)/C1=C\c1ccc(O)c(O)c1 | 3.47
CC1CCN(S(=O)(=O)c2ccc(Cl)c(C(F)(F)F)c2)CC1 | 0.583
CCC[C@H](NC(=O)C1(NC(=O)c2ccc(F)cc2)CCCCC1)C(=O)c1nc2ccccc2o1 | -4.72
O=C(CSc1ccc2nnc(CCNS(=O)(=O)c3ccccc3)n2n1)c1ccccc1 | 0.0244
CCOC(=O)c1cccc(NC(=O)C(CC)CC)c1 | -0.0619
COc1cc(C2CC(C)(OC)Oc3cc4c(cc32)OCO4)cc(OC)c1OC (centres unmarked) | 9.62
Cc1n[nH]c2c1C1(C(=O)N(C)c3ccc(Br)cc31)C(C#N)=C(N)O2 (centres unmarked) | -1.84
Cc1ccc(S(=O)(=O)N2CCN(C/C=C/c3ccccc3)CC2)cc1 | 9.51
O=C(O)/C=C/c1cccc(/C=C/C(=O)O)c1 | -6.18
O=C1C2=C(C(c3ccccc3)=NCCN2)C(c2cccc(F)c2)N1c1ccccc1 (centres unmarked) | 5.79
CCC(=O)N1c2ccccc2C(N(C(C)=O)c2ccccc2)CC1C (centres unmarked) | 3.65
COCCNC(=O)c1cnn(-c2ccccc2Cl)c1C1CCN(C(=O)OC(C)(C)C)CC1 | -5.19
Cc1ccc(CSCc2ccc(C(=O)NCc3cccnc3)o2)cc1 | 3.79
COC(=O)C1=CN(C(C)C)C=C(C(=O)OC)C1c1ccccc1Cl | -3.23
Cc1cc(NC(=O)CCCS(=O)(=O)c2nc(-c3cccs3)cc(C(F)(F)F)n2)no1 | 11.6
COc1ccc(Cl)cc1C(=O)NCc1ccc(F)cc1 | -1.02
CNC(=O)/C(C#N)=C/c1c(Oc2cc(C)cc(C)c2)nc2ccccn2c1=O | -5.1
C=CCNC(=O)COc1ccc(Cl)cc1 | 3.24
CSc1ccc(CN2CCN(Cc3ccco3)CC2)cc1 | -1.06
COC(=O)C1=C(C)NC(=O)NC1c1ccccc1OCc1ccccc1 (centres unmarked) | 7.5
COc1ccc(/C=C/C(=O)c2oc3ccc(F)cc3c2C)cc1 | -5.38
Cc1ccccc1C1N2CCCN12 (centres unmarked) | -3.11
FC(F)(F)C1(C(F)(F)F)N=C(c2ccc(Cl)cc2)OC(N2CCOCC2)=N1 | 0.275
O=C(NCCCN1CCOCC1)C1CCN(c2nn3cc(-c4ccc(F)cc4)nc3s2)CC1 | -5.54

Structure (SMILES) | % Inhibition @ 10 uM [%]
CCOc1ccc(C2CC(=O)N=C(NC(=O)CCCOc3ccccc3)N2)cc1 (centres unmarked) | -3.01
O=C(NCCCN1CCN(Cc2ccccc2)CC1)c1cc(-c2ccncc2)nc2ccccc12 | -0.519
COc1ccc(C(=O)Nc2ccc(Cl)cc2C(=O)NCCO)cc1 | -3.09
O=c1cccc2n1C[C@H]1C[C@@H]2CN(Cc2ccc3c(c2)OCO3)C1 | -10.5
CC(Sc1nc(O)c2cnn(-c3ccccc3)c2n1)c1ccccc1 (centres unmarked) | 0.208
O=C(NCCO)c1ccc(CSc2nc(O)c3c4c(sc3n2)CCCC4)cc1 | 4
CN1CCC(N2CCCN(C)CC2)CC1 | -3.27
COc1ccc(C(=O)NC(N2CCCC2=O)(C(F)(F)F)C(F)(F)F)cc1 | -3.37
CCS(=O)(=O)c1ncc(Cl)c(C(=O)Nc2c(C(=O)c3ccc(F)cc3)oc3ccccc23)n1 | -2.85
C/C=C(\C)CN(C)CCN(CC)CC | -0.603
COc1ccc(/C=C/C(O)=C2\C(=O)Oc3ccccc3C2=O)c(OC)c1 | -1.46
Cc1cccc(NC(=O)c2cccc(Cl)c2)c1C | 0.467
CCOc1ccc(-c2cc(C(=O)NCCN3CCOCC3)c3cc(C)ccc3n2)cc1 | 2.4
COc1ccccc1S(=O)Cc1ccc(C(=O)NC2CCCC2)o1 (centres unmarked) | -6.89
COc1cc(S(=O)(=O)n2ccnc2C)c(OC)cc1Cl | -0.053
CC(=O)c1c(C)nc(S)c(C#N)c1-c1ccc(Cl)cc1 | 33.7
NCC/C=C1/c2ccccc2CSc2ccccc21 | -0.759
CC(=O)Nc1ccc(NC(=O)C2C3CCCCC32)cc1 (centres unmarked) | -2.62
CCCN1CCN(C(=O)CCc2c(C)nc3cc(-c4ccc(OC)cc4OC)nn3c2C)CC1 | 1.26
CC(O)CN(Cc1ccc(Cl)cc1Cl)CC(C)O (centres unmarked) | 0.217
COP(=O)(OC)C(Nc1ccc(Br)cc1)c1c[nH]c2ccccc12 (centres unmarked) | -5.23
O=C(CCc1ccccc1)Nc1ccccc1C(=O)NCc1ccco1 | -8.2
Cc1cccc(NCc2ccc([N+](=O)[O-])cc2)c1 | 1.08
COc1ccc(C2=CC(c3ccc(Cl)cc3Cl)n3ncnc3N2)cc1OC (centres unmarked) | -1.4
COc1cc(Oc2ccc(C(C)C)cc2C)nc(N)n1 | 0.565
O=C(Nc1ccc(C(=O)Nc2cccc(Cl)c2)cc1)c1ccccc1 | -1.43

Structure (SMILES) | % Inhibition @ 10 uM [%]
CCOC(=O)c1c(C)[nH]c(C)c1S(=O)(=O)NCC(=O)N(C)C1CCCCC1 | 2.41
COc1ccc(S(=O)(=O)c2cnc3cc4c(cc3c2N2CCCCC2)OCCO4)cc1 | -6.24
C=CCSc1nc2c(cc1C#N)CCC2 | -1.98
O=C(O)c1ccc(C2Nc3cccc4cccc(c34)N2)cc1 | 2.65
C=CCN1C(=O)S/C(=C/c2c(OC)cc(OC)cc2OC)C1=O | 3.81
CC1=C(C(=O)Nc2cc(C)ccn2)C(c2cnn(C)c2)C2=C(O)CC(c3ccccc3)CC2=N1 (centres unmarked) | -1.44
Sc1nnc2c3ccccc3n(Cc3ccccc3)c2n1 | 7.24
COC(=O)c1c(NC(=O)C2CSC(c3ccncc3)=N2)sc(C)c1C (centres unmarked) | -2.14
CC(=O)Nc1ccc(Cl)c2ccccc12 | 0.774
O=C1CSC(c2ccccc2)N1c1ncccn1 (centres unmarked) | 1.38
Cc1cccc(CN2CCC(C/N=c3/c(-c4ccccc4)c(O)c3=O)CC2)c1 | -6.87
COc1ccc(NC(=O)C2C3C=CC(C3)C2C(=O)O)c(OC)c1 (centres unmarked) | -5.06
COc1ccc(C2Nc3ccccc3N=C3CC(C)(C)CC(O)=C32)cc1OC (centres unmarked) | 5.29
Cc1ccc(S(=O)(=O)N2CCC(C(=O)N3CCc4ccccc4C3)CC2)cc1 | -0.169
CCSc1nnc(NC(=O)/C=C/c2ccccc2OC)s1 | 2.79
CCCC(C)C(=O)Nc1ccc(S(=O)(=O)N2CCCC2)cc1 (centres unmarked) | 3.17
COc1cccc(N(CC(=O)Nc2ccc(Br)cc2)S(=O)(=O)c2ccccc2)c1 | -3.28
COc1ccc(CN2CCNC(=O)C2CC(=O)O)c(F)c1 (centres unmarked) | -2.71
CCOC(=O)N1CCN(C(=O)C(C)(C)Oc2ccc(Cl)cc2)CC1 | -3.06
CCOC(=O)N1CCN(C(=O)CN(c2ccccc2OC)S(C)(=O)=O)CC1 | 4.08
CCOc1c(C)cc(-c2ncccc2O)cc1C | -0.415
CN1CCN(Cc2ccccc2C(F)(F)F)CC1 | 4.67
N#Cc1c(N)nc2c(c1-c1ccc(Cl)cc1)CCCC2 | 1.84
